The sample as a whole holds a higher share of the strongest signals than the screen did.
system: Neu5Ac(a2-3)Gal(b1-3)GlcNAc(b1-3)Gal(b1-3)GlcNAc; experiment: glycan array binding signal (z-score within array); higher = stronger binding; conditions: glycan notation: IUPAC condensed, linker removed
How it was run: (§1)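 The Consortium for Functional Glycomics database supplied 3228 glycan arrays, of which those lacking an available protein sequence were dropped. The binding signal, a within-array Z-score, was averaged across arrays of the same protein sequence and across linkers. Negative scores can be read as non-binding.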

Substance	glycan array binding signal (z-score)
Serum Amyloid P component (Homo sapiens) (chain not printed)	1.67
STIM-3 (Mus musculus) (chain not printed)	-0.441
Gal 8-short (Homo sapiens) (chain not printed)	1.59

system: Neu5Ac(a2-3)Gal(b1-3)GlcNAc; experiment: as above; conditions: glycan notation: IUPAC condensed, linker removed
How it was run: as §1

Substance	glycan array binding signal (z-score)
Galectin-8 C-terminal CRD (Homo sapiens) (chain not printed)	0.344
VWF (Homo sapiens) (chain not printed)	0.013
Meso764 (Homo sapiens) (chain not printed)	-0.042
Thrombomodulin Extracellular (Homo sapiens) (chain not printed)	-0.035
